Experimental data from paper PMC8710044 (Biochemical pharmacology, 2021).

T1: CYP2C8 (Homo sapiens, UniProt P10632)
T1 sequence (P10632 1-490): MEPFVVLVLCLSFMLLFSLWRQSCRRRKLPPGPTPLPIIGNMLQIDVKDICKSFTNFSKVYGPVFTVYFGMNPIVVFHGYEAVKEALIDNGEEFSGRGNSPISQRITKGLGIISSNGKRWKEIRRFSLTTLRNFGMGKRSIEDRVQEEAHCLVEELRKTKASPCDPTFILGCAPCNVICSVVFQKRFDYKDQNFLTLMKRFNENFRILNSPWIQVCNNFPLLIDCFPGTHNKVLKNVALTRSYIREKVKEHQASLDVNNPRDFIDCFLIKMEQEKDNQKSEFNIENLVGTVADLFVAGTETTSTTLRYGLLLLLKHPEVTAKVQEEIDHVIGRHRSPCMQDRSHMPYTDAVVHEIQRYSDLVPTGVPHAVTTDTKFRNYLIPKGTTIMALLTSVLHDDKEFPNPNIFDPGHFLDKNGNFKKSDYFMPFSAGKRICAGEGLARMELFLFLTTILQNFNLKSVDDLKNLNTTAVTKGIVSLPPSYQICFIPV


Columns and labels:
[1] = target: T1, CYP2C8; test: Steady-state kinetics of overall NSAID metabolism; format: in vitro ADME; details: overall metabolism by CYP2C8; Vmax/Km
[2] = target: T2, CYP2C19 (Homo sapiens, UniProt P33261); test: Steady-state kinetics of overall NSAID metabolism; format: in vitro ADME; details: overall metabolism by CYP2C19; Vmax/Km
[3] = target: T3, CYP3A4 (Homo sapiens, UniProt P08684); test: Steady-state kinetics of overall NSAID metabolism; format: in vitro ADME; details: overall metabolism by CYP3A4; Vmax/Km
[4] = target: T1, CYP2C8; test: Relative CYP contribution to hepatic bioactivation and detoxification, CYP2C8; format: in vitro ADME; details: sum of bioactivation ksp values
[5] = target: CYP2C9 (Homo sapiens, UniProt P11712); test: Relative CYP contribution to hepatic bioactivation and detoxification, CYP2C9; format: in vitro ADME; details: sum of bioactivation ksp values
[6] = target: T2, CYP2C19; test: Relative CYP contribution to hepatic bioactivation and detoxification, CYP2C19; format: in vitro ADME; details: sum of bioactivation ksp values
[7] = target: T3, CYP3A4; test: Relative CYP contribution to hepatic bioactivation and detoxification, CYP3A4; format: in vitro ADME; details: sum of bioactivation ksp values
[8] = substrate: Cc1ccc(Cl)c(Nc2ccccc2C(=O)O)c1Cl; test: cells, lysate or membranes named; details: other: CYP2C9; metabolite M6, path 3; 95% CI in parentheses; pH 7.4
[9] = substrate: Cc1ccc(Nc2c(F)cccc2Cl)c(CC(=O)O)c1; test: cells, lysate or membranes named; details: other: CYP2C9; metabolite M6a, path 3; 95% CI in parentheses; pH 7.4
[10] = substrate: O=C(O)COC(=O)Cc1ccccc1Nc1c(Cl)cccc1Cl; test: cells, lysate or membranes named; details: other: CYP2C9; metabolite M6, path 3; 95% CI in parentheses; pH 7.4

T3 sequence (P08684 whole entry): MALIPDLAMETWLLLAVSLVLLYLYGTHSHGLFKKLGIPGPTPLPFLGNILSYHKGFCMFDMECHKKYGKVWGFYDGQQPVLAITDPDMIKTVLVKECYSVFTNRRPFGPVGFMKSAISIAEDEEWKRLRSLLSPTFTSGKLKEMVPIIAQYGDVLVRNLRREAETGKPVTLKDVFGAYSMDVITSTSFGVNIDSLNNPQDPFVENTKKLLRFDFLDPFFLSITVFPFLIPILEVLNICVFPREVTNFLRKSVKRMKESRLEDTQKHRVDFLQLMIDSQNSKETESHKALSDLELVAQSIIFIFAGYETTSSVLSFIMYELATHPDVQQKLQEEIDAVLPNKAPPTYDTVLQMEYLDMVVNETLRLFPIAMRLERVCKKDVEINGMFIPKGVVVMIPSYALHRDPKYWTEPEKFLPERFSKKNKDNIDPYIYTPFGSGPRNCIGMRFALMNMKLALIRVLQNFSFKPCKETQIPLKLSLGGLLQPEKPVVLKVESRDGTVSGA
T2 sequence (P33261 whole entry): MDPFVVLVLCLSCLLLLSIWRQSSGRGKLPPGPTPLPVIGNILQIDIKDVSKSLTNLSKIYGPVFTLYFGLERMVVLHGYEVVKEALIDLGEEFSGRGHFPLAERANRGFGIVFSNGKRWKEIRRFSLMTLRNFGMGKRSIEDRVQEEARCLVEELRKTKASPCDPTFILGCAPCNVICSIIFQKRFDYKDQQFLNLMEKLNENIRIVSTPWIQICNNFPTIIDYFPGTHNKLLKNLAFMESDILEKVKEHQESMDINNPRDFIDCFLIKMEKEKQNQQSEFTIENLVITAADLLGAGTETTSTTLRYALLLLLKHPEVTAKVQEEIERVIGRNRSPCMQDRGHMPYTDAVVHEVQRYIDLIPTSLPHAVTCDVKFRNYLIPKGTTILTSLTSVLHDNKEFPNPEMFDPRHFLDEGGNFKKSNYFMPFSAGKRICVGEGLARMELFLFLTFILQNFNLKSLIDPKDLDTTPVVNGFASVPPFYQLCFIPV

Molecule	ksp [1]	ksp [2]	ksp [3]	Bioactivation ksp,total [4]	Bioactivation ksp,total [5]	Bioactivation ksp,total [6]	Bioactivation ksp,total [7]	Km [8]	kcat [8]	Km [9]	kcat [9]	Km [10]	kcat [10]
O=C(O)COC(=O)Cc1ccccc1Nc1c(Cl)cccc1Cl [ACE, aceclofenac]	15.8 pmol/min/nmol protein/μM substrate	8.0 pmol/min/nmol protein/μM substrate	29.7 pmol/min/nmol protein/μM substrate	0.90 pmol/min/nmol protein/μM substrate	12.6 pmol/min/nmol protein/μM substrate	1.51 pmol/min/nmol protein/μM substrate	0.109 pmol/min/nmol protein/μM substrate						
O=C(O)Cc1ccccc1Nc1c(Cl)cccc1Cl [DIC, diclofenac]	15.0 pmol/min/nmol protein/μM substrate	27.5 pmol/min/nmol protein/μM substrate	42.2 pmol/min/nmol protein/μM substrate	0.013 pmol/min/nmol protein/μM substrate		1.50 pmol/min/nmol protein/μM substrate	0.20 pmol/min/nmol protein/μM substrate						
Cc1ccc(Cl)c(Nc2ccccc2C(=O)O)c1Cl [MEC, meclofenamic acid]		15.0 pmol/min/nmol protein/μM substrate	41.2 pmol/min/nmol protein/μM substrate		2.23 pmol/min/nmol protein/μM substrate	4.36 pmol/min/nmol protein/μM substrate	0.648 pmol/min/nmol protein/μM substrate						
Cc1ccc(Nc2c(F)cccc2Cl)c(CC(=O)O)c1 [LUM, lumiracoxib]		33.8 pmol/min/nmol protein/μM substrate	31.7 pmol/min/nmol protein/μM substrate		5.66 pmol/min/nmol protein/μM substrate	0.147 pmol/min/nmol protein/μM substrate	0.146 pmol/min/nmol protein/μM substrate						
Cc1cccc(Nc2ccccc2C(=O)O)c1C [MEF, mefenamic acid]	15.0 pmol/min/nmol protein/μM substrate	13.9 pmol/min/nmol protein/μM substrate	43.8 pmol/min/nmol protein/μM substrate	0.179 pmol/min/nmol protein/μM substrate	4.22 pmol/min/nmol protein/μM substrate	0.295 pmol/min/nmol protein/μM substrate	0.181 pmol/min/nmol protein/μM substrate						
Cc1c(Cl)cccc1Nc1ccccc1C(=O)O [TOL, tolfenamic acid]		18.8 pmol/min/nmol protein/μM substrate	37.3 pmol/min/nmol protein/μM substrate		4.66 pmol/min/nmol protein/μM substrate	0.705 pmol/min/nmol protein/μM substrate	1.06 pmol/min/nmol protein/μM substrate						
O=C(O)c1ccccc1Nc1cccc(C(F)(F)F)c1 [FLU, flufenamic acid]		16.7 pmol/min/nmol protein/μM substrate	40.8 pmol/min/nmol protein/μM substrate		1.20 pmol/min/nmol protein/μM substrate	0.27 pmol/min/nmol protein/μM substrate	1.04 pmol/min/nmol protein/μM substrate						
CYP2C9 (Homo sapiens) (protein) MDSLVVLVLCLSCLLLLSLWRQSSGRGKLPPGPTPLPVIGNILQIGIKDISKSLTNLSKVYGPVFTLYFGLKPIVVLHGYEAVKEALIDLGEEFSGRGIFPLAERANRGFGIVFSNGKKWKEIRRFSLMTLRNFGMGKRSIEDRVQEEARCLVEELRKTKASPCDPTFILGCAPCNVICSIIFHKRFDYKDQQFLNLMEKLNENIKILSSPWIQICNNFSPIIDYFPGTHNKLLKNVAFMKSYILEKVKEHQESMDMNNPQDFIDCFLMKMEKEKHNQPSEFTIESLENTAVDLFGAGTETTSTTLRYALLLLLKHPEVTAKVQEEIERVIGRNRSPCMQDRSHMPYTDAVVHEVQRYIDLLPTSLPHAVTCDIKFRNYLIPKGTTILISLTSVLHDNKEFPNPEMFDPHHFLDEGGNFKKSKYFMPFSAGKRICVGEALAGMELFLFLTSILQNFNLKSLVDPKNLDTTPVVNGFASVPPFYQLCFIPV								18.2 (12.9–25.0) μM	9.4 (8.8–10.0) pmol/min/nmol protein	7.6 (6.2–9.3) μM	13.1 (12.7–13.6) pmol/min/nmol protein	8.1 (6.5–9.9) μM	43.5 (41.8–45.3) pmol/min/nmol protein
